Data: the BET-seq Pho4 binding data (Le et al. 2018)
Some of the results follow. The energies were worked out here from pooled read counts, against the library average; single values are noisy.

molecular target: T1, Pho4 (S. cerevisiae) (UniProt P07270); assay: relative binding free energy (BET-seq); higher = weaker binding; conditions: reference: library average
T1 sequence: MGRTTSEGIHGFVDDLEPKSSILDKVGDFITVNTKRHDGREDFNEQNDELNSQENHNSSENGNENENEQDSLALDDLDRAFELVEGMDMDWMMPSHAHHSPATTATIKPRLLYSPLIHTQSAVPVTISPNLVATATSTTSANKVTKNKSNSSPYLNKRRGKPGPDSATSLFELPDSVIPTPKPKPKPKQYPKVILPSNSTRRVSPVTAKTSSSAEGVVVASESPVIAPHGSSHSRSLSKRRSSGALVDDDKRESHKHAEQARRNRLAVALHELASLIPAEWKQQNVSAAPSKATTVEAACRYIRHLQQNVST

Relative binding free energy, 0.21 kcal/mol:
ATTTTCACGTGATTAA
GGGATCACGTGTAGGG
TTTATCACGTGTCAGA
GGAGGCACGTGAATAT

Relative binding free energy, -0.04 kcal/mol:
CGGTCCACGTGGAGTG
CTTGACACGTGGGGAT
TGACACACGTGGTGGA
GGTGGCACGTGTTTTC
AGGCGCACGTGTAAGG

Relative binding free energy, -0.11 kcal/mol:
GTTGACACGTGCGGGT
TATGGCACGTGCGAGT
TGCTCCACGTGGTGTG
CTAGGCACGTGGGAGT
TTCGGCACGTGCGGCG
GGCGGCACGTGGCCGT
TAGGACACGTGTTGCG
ATTTGCACGTGCAGGA
GCTTGCACGTGGGCAT

Relative binding free energy, 0.03 kcal/mol:
TTAGACACGTGGTGTT
CCTGTCACGTGGTGGT
AATTACACGTGGTTAG
GTTTGCACGTGGTACT
AGTATCACGTGGGTGC
GAGGGCACGTGTATTT

Relative binding free energy, 0.25 kcal/mol:
ATGTTCACGTGCGGAA

Relative binding free energy, 0 kcal/mol:
TGTGACACGTGATGAG
GGTAGCACGTGTATTG
CGGGTCACGTGGTGCG
TTTAACACGTGATGCG

Relative binding free energy, 0.13 kcal/mol:
TAATTCACGTGGTGTG
TTCGTCACGTGTAGTG
TGGGTCACGTGGAGGG
TGGCGCACGTGATGGT
TATCTCACGTGTGTTA
TGATTCACGTGAGTAA

Relative binding free energy, 0.02 kcal/mol:
GTGTCCACGTGCGTGA
GATATCACGTGGGGTT
AAGTGCACGTGGAAGT
AGGGTCACGTGCTGCG
TCTATCACGTGGTTGG
GTATACACGTGTCTGG
CGCGGCACGTGAGGGT

Relative binding free energy, -0.09 kcal/mol:
TGAAACACGTGGTGCT

Relative binding free energy, 0.31 kcal/mol:
TGTTTCACGTGAACAT
CATCTCACGTGTGTGG
TTTTTCACGTGTAAAT

Relative binding free energy, 0.09 kcal/mol:
GGTGTCACGTGGTGGC
TTCAACACGTGGGATG
GTTCTCACGTGGGTTT
TTACTCACGTGTATGT

Relative binding free energy, 0.3 kcal/mol:
GCGGGCACGTGAGAGG
GATGTCACGTGGAAAT
GGTTCCACGTGAAGTG

Relative binding free energy, 0.16 kcal/mol:
GTGGTCACGTGGACTT

Relative binding free energy, 0.32 kcal/mol:
TAATACACGTGAGGGG
GTAATCACGTGGAGTT

Relative binding free energy, 0.22 kcal/mol:
AGGGGCACGTGAGGGG
GTTTGCACGTGAGTTA
TTGTGCACGTGAAGAG

Relative binding free energy, 0.04 kcal/mol:
GGGAACACGTGCTGTA
CTTAGCACGTGTGTGA
GCGGTCACGTGCGTTT
TGCGACACGTGGTGGA
TGTCACACGTGGTTTT
TTGCACACGTGTGGAG
TTGTACACGTGGATAG

Relative binding free energy, 0.18 kcal/mol:
GCTGACACGTGGATGG
ATTGACACGTGAATAG
TTGGACACGTGAGGGT
GAGCCCACGTGTGGGT
CTATTCACGTGGATTT

Relative binding free energy, -0.06 kcal/mol:
ATAGGCACGTGTGTCA
TGCGACACGTGGTATT
TAGTGCACGTGCTGCT
TATGACACGTGGACGG
TGCATCACGTGGTCGG

Relative binding free energy, 0.37 kcal/mol:
GTCTTCACGTGTGGGC
TAGTTCACGTGGTTAA

Relative binding free energy, -0.14 kcal/mol:
AAGGACACGTGGGGGA
GGTGCCACGTGGGGGT

Relative binding free energy, -0.07 kcal/mol:
ATTTCCACGTGGGTAG
GATGTCACGTGGGGTA
CGAGGCACGTGATTGT
ATCTGCACGTGTGGAT
CATGGCACGTGTTAGA
GAGTGCACGTGCGCGG

Relative binding free energy, 0.11 kcal/mol:
TATATCACGTGGGGAG
TTTTGCACGTGTTCGG
AATTCCACGTGGAGGG
CTGATCACGTGTGTAT
TTTATCACGTGCGTCT
GCTTGCACGTGGTTAA
CGGGTCACGTGATAGT

Relative binding free energy, 0.38 kcal/mol:
TTATTCACGTGAGGTT

Relative binding free energy, -0.23 kcal/mol:
GGGCGCACGTGCAGGT

Relative binding free energy, 0.12 kcal/mol:
GCAGACACGTGGTGGT
AGTTGCACGTGACGAG
TCGCTCACGTGGGGGG
AGCCGCACGTGAGGGG
TTAGGCACGTGAGGAT
AGACACACGTGTTGGG
ATTATCACGTGTCTAT
TAGATCACGTGCTTGG

Relative binding free energy, 0.08 kcal/mol:
AGGAGCACGTGATTTG
GGGGACACGTGTGGCG
GGTAACACGTGTTGGT
CGCTGCACGTGTGTGC

Relative binding free energy, -0.05 kcal/mol:
TAGCGCACGTGTAGGG
ATGTGCACGTGTCCGG
TGGAACACGTGGGCAT
CGTGTCACGTGGTTGC

Relative binding free energy, 0.29 kcal/mol:
TGTTTCACGTGTTGGA
TCGGACACGTGAGTAG
GTTTTCACGTGATGTA

Relative binding free energy, -0.26 kcal/mol:
TTGAGCACGTGGGTTC

Relative binding free energy, 0.06 kcal/mol:
GATGACACGTGGTTGT
GAGCGCACGTGTAGGC
GAGTACACGTGGTGTA
TATGACACGTGTCGGG
AGTTGCACGTGTGGCA
TCAGTCACGTGGGCTT

Relative binding free energy, -0.27 kcal/mol:
TGTCGCACGTGGGCTT
CTTGGCACGTGGGTCA
ACATGCACGTGGGAGT

Relative binding free energy, 0.36 kcal/mol:
TTCTTCACGTGTCGTG
AGTTTCACGTGAGGGG

Relative binding free energy, 0.34 kcal/mol:
GATTTCACGTGTTTGG

Relative binding free energy, 0.35 kcal/mol:
TGACTCACGTGAGCGG
ATGTTCACGTGGATGA

Relative binding free energy, -0.19 kcal/mol:
TGGGCCACGTGCGGGG
ATTGCCACGTGGGTTG

Relative binding free energy, -0.24 kcal/mol:
CGGGGCACGTGGGTCG

Relative binding free energy, -0.25 kcal/mol:
AGTGGCACGTGCTCGG

Relative binding free energy, 0.15 kcal/mol:
ATGGGCACGTGAGGTC
CGGCTCACGTGGGTTT
GGTTGCACGTGTAGTT
GTGCTCACGTGGCGTT
CTATTCACGTGTTAAG
GCAGTCACGTGGGTTT

Relative binding free energy, -0.15 kcal/mol:
TGAAGCACGTGGGTCG
GGAGGCACGTGTTTGA
CTTGCCACGTGGTGTA

Relative binding free energy, -0.22 kcal/mol:
CGTTGCACGTGGGAAT
TTAAGCACGTGCAGGT

Relative binding free energy, 0.07 kcal/mol:
ATAGTCACGTGGTGGG
GTGCGCACGTGTATGT
TTCATCACGTGGAGTT
CGCTGCACGTGTAAGG
GGTTCCACGTGCGTGA

Relative binding free energy, 0.2 kcal/mol:
TAATTCACGTGCATTT
TTTGTCACGTGATTTG
GATCTCACGTGTGGGT
ATCATCACGTGGAGTG
TTAATCACGTGATGGA
GTATGCACGTGACGGC

Relative binding free energy, 0.17 kcal/mol:
TGTAACACGTGTGGCT

Relative binding free energy, -0.16 kcal/mol:
CATGGCACGTGGTTGT

Relative binding free energy, 0.14 kcal/mol:
CATTTCACGTGTATAT
ACTGGCACGTGTGTAT

Relative binding free energy, -0.13 kcal/mol:
AGTCGCACGTGGTAAG

Relative binding free energy, 0.1 kcal/mol:
TTGTGCACGTGTTAAA
TGTATCACGTGGACTG
AGTATCACGTGGCGCG
ATTTACACGTGTTGCT
TGTTACACGTGTTCGT

Relative binding free energy, 0.33 kcal/mol:
GTGATCACGTGTATCT

Relative binding free energy, 0.28 kcal/mol:
CCTTTCACGTGTGTTG
CAATTCACGTGGTTAG
CGTGACACGTGAGGAG
GGTAACACGTGAAGGA

Relative binding free energy, -0.1 kcal/mol:
AGTGGCACGTGGAGCG
ACTAGCACGTGTTTGT
TTATGCACGTGGGAAG

Relative binding free energy, 0.01 kcal/mol:
AATGGCACGTGAATGT
TAAAGCACGTGTGTAA
CATATCACGTGGTGTT
GTTAACACGTGGCGGT
GGTGCCACGTGTGGGA
TTGGGCACGTGACGGG
TGTAACACGTGGCAGG

Relative binding free energy, 0.23 kcal/mol:
GTTGACACGTGATTGT
TTTTACACGTGCAGGT

Relative binding free energy, -0.21 kcal/mol:
GGTACCACGTGGAGGG
AGGCGCACGTGGGCGA
CTGTGCACGTGGGCTG

Relative binding free energy, 0.47 kcal/mol:
TTTATCACGTGAGCAA

Relative binding free energy, -0.02 kcal/mol:
CCGTGCACGTGGAGTG
TTTTGCACGTGCAGGA

Relative binding free energy, -0.08 kcal/mol:
TTGGGCACGTGTTGGG
AGTCGCACGTGCAGGT
GTCGGCACGTGTGTTT
CCTTGCACGTGGGATG
ATGTGCACGTGGCGGA
GGTAACACGTGGGGGC
AAGTGCACGTGCGTTG

Relative binding free energy, -0.17 kcal/mol:
TTTAACACGTGGGCTT

Relative binding free energy, -0.03 kcal/mol:
TATGTCACGTGGGGAC
GATGGCACGTGCAGTG
TAGCGCACGTGTGGTT
ATTGTCACGTGGTTGC
TCGTGCACGTGTTTAT
GTTAGCACGTGGTAGG
GGGAGCACGTGTATGA

Relative binding free energy, -0.12 kcal/mol:
ACTGTCACGTGCTGGG
TATGTCACGTGGGTAC

Relative binding free energy, 0.26 kcal/mol:
TTATTCACGTGTGAGG

Relative binding free energy, 0.27 kcal/mol:
TCGTTCACGTGGGAGC

Relative binding free energy, -0.01 kcal/mol:
AAGTGCACGTGATTGA
TTAGACACGTGTATGA
GGTGGCACGTGGTTAT
TGAGTCACGTGGGGAA
TTGTACACGTGTTCGT
CTGGGCACGTGGCACG
ATTGACACGTGGTAGG

Relative binding free energy, 0.39 kcal/mol:
GTTCACACGTGAATGG

Relative binding free energy, 0.19 kcal/mol:
AGCTTCACGTGGTTAT
TTAATCACGTGATTGC

Relative binding free energy, 0.24 kcal/mol:
GAAGTCACGTGATGGT
AGATTCACGTGTATTT
CGATTCACGTGTTGAT
GCGTTCACGTGGGATT
TGTTACACGTGAATGT

Relative binding free energy, 0.05 kcal/mol:
TCTGTCACGTGGATAT
ATAGTCACGTGTCGGA
TGGGACACGTGTTTCT
GGAGGCACGTGTTCTT
CGTTACACGTGCTGTT
ATCGTCACGTGGTAGT
GGTTACACGTGTTCTG
AGGTGCACGTGATGGC
